In publication PMC7819943, “Rice protein-binding microarrays: a tool to detect cis-acting elements near promoter regions in rice”:
Some of the results follow.

target: T1, OsWOX13 (Oryza sativa, UniProt Q5QMM3 1-267); test: protein-binding microarray (RPBM); PBS, 2% BSA, 51.3 ng/ul salmon testes DNA, 50 uM zinc acetate, 200 nM TF, 25 C, 1 h; high values mean tight binding; details: protein: recombinant; tags: N-terminal polyhistidine and DsRed monomer fusion (pET32a); label: CyDye5-dUTP incorporated in the synthesized complementary strand; 3' TTTTT single-stranded linker to array surface; dsDNA, one strand shown
T1 sequence: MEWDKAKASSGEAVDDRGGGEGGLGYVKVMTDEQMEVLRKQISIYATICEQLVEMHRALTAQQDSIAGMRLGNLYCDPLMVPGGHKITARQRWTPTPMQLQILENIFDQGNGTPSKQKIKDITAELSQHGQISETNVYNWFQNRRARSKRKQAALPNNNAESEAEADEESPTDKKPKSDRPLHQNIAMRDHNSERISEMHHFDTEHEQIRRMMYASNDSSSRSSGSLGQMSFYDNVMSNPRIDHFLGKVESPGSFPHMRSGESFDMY
Method in brief: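 For the binding signal, per-feature fluorescence intensity was read in arbitrary units on an Axon 4000B scanner. Before scanning, a 2% BSA-blocked custom Agilent array made double-stranded with Cy5-dUTP was washed after 1 h at 25 °C with 200 nM protein and 50 µM zinc acetate. The proteins were Ni–NTA-purified transcription factors with N-terminal polyhistidine and DsRed fusions, expressed in E. coli BL21-CodonPlus.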

Sequence	binding signal
ATAAGTGATTTTAATATTTTGCTTGCACCGTTTGAGCATTCGGAGTCACCTAGTGCAG	9340 fluorescence intensity (a.u.)
GTAAACTATTAGATTGGTTATAGATGAATTGAAGCTAGTACGGAGTCACCTAGTGCAG	23500 fluorescence intensity (a.u.)
TCTGACAAGGGACTGACAGGATATAAACCGGGACTAAAGACGGAGTCACCTAGTGCAG	8410 fluorescence intensity (a.u.)
TGTTAGATTTAATGTAATTGATTTGATATTTTAGATATTGCGGAGTCACCTAGTGCAG	49700 fluorescence intensity (a.u.)
TGATTGTGTGATTGATGATTAGTGTGTGTATGACTGTATCCGGAGTCACCTAGTGCAG	31400 fluorescence intensity (a.u.)
TTTAAAATTATAGATTAGAAAACAAATTTGTCATGTAGAACGGAGTCACCTAGTGCAG	18100 fluorescence intensity (a.u.)
TATATATATATATATATATATATATACATTAACTAATCTTCGGAGTCACCTAGTGCAG	20400 fluorescence intensity (a.u.)
TTTTAAATTTATTTGAATTTAAGAAGGTTGCCATGGTTTTCGGAGTCACCTAGTGCAG	9530 fluorescence intensity (a.u.)
TAATTTCTGGATTATCACGAGATTGGAAATTTGGAAGGTTCGGAGTCACCTAGTGCAG	6140 fluorescence intensity (a.u.)
CAACAGGATTGGAAGTGATCAGAGACAGGCAATGAAATCCCGGAGTCACCTAGTGCAG	8460 fluorescence intensity (a.u.)
GCAGTAGTAGTTGTGATTGGTTAAGATAAATAGATTGTTGCGGAGTCACCTAGTGCAG	13900 fluorescence intensity (a.u.)
GCGTTGATGAGTCGTATTAACGATCACTTCTTCTCTTTATCGGAGTCACCTAGTGCAG	5520 fluorescence intensity (a.u.)
ACAGATTGATGTTATACAAGAAGAATATAATAACATTAGTCGGAGTCACCTAGTGCAG	36800 fluorescence intensity (a.u.)
CTTGATTGCCCACTTTGGCAATTGTAAAACCGACAAGTAGCGGAGTCACCTAGTGCAG	47200 fluorescence intensity (a.u.)
GATAATTGTCACGGAATCTGTGGTTTTCCGTCCAATGAATCGGAGTCACCTAGTGCAG	25800 fluorescence intensity (a.u.)
CGTCCACTCCAATTACATCCATCCATCCGCTCTGCAACCTCGGAGTCACCTAGTGCAG	3610 fluorescence intensity (a.u.)
AAACAGATTGACTTTAACCAAACTCAAAACGTAAAATAACCGGAGTCACCTAGTGCAG	17500 fluorescence intensity (a.u.)
TAAAATTTAAATTTTGGCTAATAAGTATAAGCATAACTGTCGGAGTCACCTAGTGCAG	15300 fluorescence intensity (a.u.)
ACTGTAAACAACTTCTGGTTTGATTGGAATAAATAAATAACGGAGTCACCTAGTGCAG	3270 fluorescence intensity (a.u.)
AGATAATTTAATTTCTTGGCATTAACAATAACTACACCAACGGAGTCACCTAGTGCAG	41500 fluorescence intensity (a.u.)
GTTAGTCAATTAATTAACGGATTAATTTGAGAAGGACACTCGGAGTCACCTAGTGCAG	34200 fluorescence intensity (a.u.)

Sequence	binding signal
TGTTGTAATGAGGATGCATGATTGCTTATTTGCTTTATTTCGGAGTCACCTAGTGCAG	5760 fluorescence intensity (a.u.)
CACATAACATGGAAATTAGATTTGCCAGAGAGGAGTAATGCGGAGTCACCTAGTGCAG	9580 fluorescence intensity (a.u.)
ACTGTTGATAGAACCCTTGATGCCAAGGTTTTCAAAGGATCGGAGTCACCTAGTGCAG	11600 fluorescence intensity (a.u.)
ATAATTGGAGATGACAATGACAAATAGTTAGGGAGTACTCCGGAGTCACCTAGTGCAG	16800 fluorescence intensity (a.u.)
TTTGATTTGGAAGGATTTGGATTCGGAATTGAACTCGACGCGGAGTCACCTAGTGCAG	28100 fluorescence intensity (a.u.)
GATTGATGTGATTTAAATTATCCTTAGTCTTAGTGCATAACGGAGTCACCTAGTGCAG	50900 fluorescence intensity (a.u.)
AGGCAAACTAACATGATGATTTTCATGATCATTAAACACCCGGAGTCACCTAGTGCAG	7680 fluorescence intensity (a.u.)
AGTAATTATTATCACCTTATAGTTTGAATTATCTTAATAACGGAGTCACCTAGTGCAG	7450 fluorescence intensity (a.u.)
TCTTTGTTATAATTATGGGGTTGGTTTTATTCGTTTTCGACGGAGTCACCTAGTGCAG	9780 fluorescence intensity (a.u.)
GATGTGATTGGATTAATTTTCAAAAGTACTTTTATATGATCGGAGTCACCTAGTGCAG	56300 fluorescence intensity (a.u.)
GTTAACCAATCATATTCATGGTGGCAATGTTGGAGTGGGACGGAGTCACCTAGTGCAG	8520 fluorescence intensity (a.u.)
AACTCGATTAATTTACAGCAAATGTTCAGTTCATTTGTTGCGGAGTCACCTAGTGCAG	21300 fluorescence intensity (a.u.)
AGCAATTATCCAATAGATAAACACTACTCCGTTCGTTTATCGGAGTCACCTAGTGCAG	6010 fluorescence intensity (a.u.)
TTAAAATTGCTAACATCCGTCGTGGACATCTTAACGATCGCGGAGTCACCTAGTGCAG	5140 fluorescence intensity (a.u.)
TATGATATGTCAAATCCTATAATTTCTTCGTCCCAAAATGCGGAGTCACCTAGTGCAG	3440 fluorescence intensity (a.u.)
ATATAAATATGTAATTGTATAAGCTAAGATTATATTGTAGCGGAGTCACCTAGTGCAG	6340 fluorescence intensity (a.u.)
TTGGACAGCAGACAGCACATAATAGATTCTGATTGAATGTCGGAGTCACCTAGTGCAG	18800 fluorescence intensity (a.u.)
AATAGATTGATTGATTGATTGAATAATATAGATAGATTGACGGAGTCACCTAGTGCAG	64400 fluorescence intensity (a.u.)
TAAAATTGAATGAATCTATCATCATATGGACACATGAGGACGGAGTCACCTAGTGCAG	32100 fluorescence intensity (a.u.)
TTGTCAATTTCCATCAAATCAAGAGTTATCAATACCTACCCGGAGTCACCTAGTGCAG	17000 fluorescence intensity (a.u.)
AAACTCAATTAATCGCACGTAAATACCACCACGTTTTACGCGGAGTCACCTAGTGCAG	10200 fluorescence intensity (a.u.)
